Assay [1] has as its target T1, 2-oxoglutarate dehydrogenase complex subunit E2o (DLST), mouse (mouse (endogenous in mouse heart mitochondria)) (UniProt Q9D2G2).
T1 sequence: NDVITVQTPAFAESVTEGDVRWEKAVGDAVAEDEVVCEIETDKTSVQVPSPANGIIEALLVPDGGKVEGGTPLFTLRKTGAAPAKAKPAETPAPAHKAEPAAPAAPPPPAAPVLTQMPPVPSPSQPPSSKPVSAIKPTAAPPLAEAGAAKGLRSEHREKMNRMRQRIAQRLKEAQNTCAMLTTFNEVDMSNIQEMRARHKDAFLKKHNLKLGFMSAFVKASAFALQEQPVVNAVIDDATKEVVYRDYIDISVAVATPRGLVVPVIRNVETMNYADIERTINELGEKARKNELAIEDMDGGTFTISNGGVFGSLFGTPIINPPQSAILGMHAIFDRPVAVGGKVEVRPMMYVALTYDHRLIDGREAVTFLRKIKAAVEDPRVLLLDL
Kind of assay: cross-linking; XL-MS of mouse heart mitochondria, 1 mg/ml protein in MIB buffer, 0.5 mM DSSO, 45 min at 15°C; merged with earlier data of the laboratory (ref. 36).

The target of assay [2] is T2, 2-oxoglutarate dehydrogenase complex subunit E3 (DLD), mouse (mouse (endogenous in mouse heart mitochondria)) (UniProt O08749).
T2 sequence: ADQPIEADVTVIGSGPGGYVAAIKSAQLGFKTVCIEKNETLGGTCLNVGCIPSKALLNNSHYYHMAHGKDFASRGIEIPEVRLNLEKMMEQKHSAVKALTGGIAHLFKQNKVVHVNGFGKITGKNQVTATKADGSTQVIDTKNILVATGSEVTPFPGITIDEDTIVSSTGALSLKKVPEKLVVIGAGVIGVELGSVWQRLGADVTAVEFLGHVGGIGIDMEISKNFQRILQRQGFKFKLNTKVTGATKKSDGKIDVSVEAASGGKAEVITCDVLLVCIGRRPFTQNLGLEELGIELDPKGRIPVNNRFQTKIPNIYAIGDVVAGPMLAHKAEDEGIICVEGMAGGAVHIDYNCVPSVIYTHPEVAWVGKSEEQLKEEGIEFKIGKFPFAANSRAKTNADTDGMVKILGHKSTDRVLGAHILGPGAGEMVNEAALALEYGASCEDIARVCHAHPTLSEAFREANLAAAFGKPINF
The description is as above.

Assay [3] addresses T3, 2-oxoglutarate dehydrogenase complex subunit E1o (OGDH), mouse (mouse (endogenous in mouse heart mitochondria)), Q60597.
T3 chain: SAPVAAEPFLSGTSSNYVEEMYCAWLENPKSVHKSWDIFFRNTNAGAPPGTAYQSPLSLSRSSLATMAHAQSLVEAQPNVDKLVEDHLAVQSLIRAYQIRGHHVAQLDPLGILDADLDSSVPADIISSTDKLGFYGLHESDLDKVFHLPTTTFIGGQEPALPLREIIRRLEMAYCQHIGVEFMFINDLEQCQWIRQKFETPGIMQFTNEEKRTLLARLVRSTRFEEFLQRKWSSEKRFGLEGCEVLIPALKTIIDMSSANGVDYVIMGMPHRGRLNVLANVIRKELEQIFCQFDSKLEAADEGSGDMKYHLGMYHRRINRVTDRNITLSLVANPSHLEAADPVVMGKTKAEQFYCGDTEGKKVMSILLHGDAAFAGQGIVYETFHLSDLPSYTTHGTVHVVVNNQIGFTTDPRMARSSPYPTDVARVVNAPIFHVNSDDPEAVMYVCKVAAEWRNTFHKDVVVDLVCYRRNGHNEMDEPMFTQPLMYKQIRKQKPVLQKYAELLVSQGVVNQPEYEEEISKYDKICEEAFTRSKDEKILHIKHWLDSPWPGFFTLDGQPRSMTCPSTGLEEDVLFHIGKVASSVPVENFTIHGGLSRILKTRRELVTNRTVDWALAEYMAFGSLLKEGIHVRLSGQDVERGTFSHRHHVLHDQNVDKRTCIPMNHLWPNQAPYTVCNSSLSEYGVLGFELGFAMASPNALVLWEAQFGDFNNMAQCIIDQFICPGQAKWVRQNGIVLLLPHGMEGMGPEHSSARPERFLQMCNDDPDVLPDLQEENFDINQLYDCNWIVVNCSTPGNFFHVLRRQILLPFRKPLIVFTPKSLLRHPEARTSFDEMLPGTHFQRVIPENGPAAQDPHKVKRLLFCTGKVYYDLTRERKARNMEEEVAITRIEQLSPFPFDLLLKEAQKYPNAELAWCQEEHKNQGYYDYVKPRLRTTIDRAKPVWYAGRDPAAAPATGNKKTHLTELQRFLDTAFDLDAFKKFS
The assay is described as above. The conditions noted are these: remark: other sources report otherwise.

Assay [4] concerns the target T4, 2-oxoglutarate dehydrogenase complex subunit E3 (DLD), bovine (bovine (endogenous in bovine heart mitochondria)) (UniProt F1N206).
T4 sequence: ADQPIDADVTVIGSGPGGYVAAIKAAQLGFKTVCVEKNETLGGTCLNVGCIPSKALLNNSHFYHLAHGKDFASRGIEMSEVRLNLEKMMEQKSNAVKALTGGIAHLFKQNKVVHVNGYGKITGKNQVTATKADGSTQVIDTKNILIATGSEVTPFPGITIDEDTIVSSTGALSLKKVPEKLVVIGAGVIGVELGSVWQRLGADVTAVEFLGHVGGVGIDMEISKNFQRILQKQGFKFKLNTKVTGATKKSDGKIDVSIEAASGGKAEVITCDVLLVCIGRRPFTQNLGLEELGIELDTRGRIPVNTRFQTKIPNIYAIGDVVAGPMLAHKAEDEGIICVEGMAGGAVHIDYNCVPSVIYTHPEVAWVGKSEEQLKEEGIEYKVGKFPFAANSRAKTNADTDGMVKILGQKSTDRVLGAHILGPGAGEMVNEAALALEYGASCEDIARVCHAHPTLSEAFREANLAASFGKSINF
Briefly: cross-linking; XL-MS of intact bovine heart mitochondria cross-linked with DSSO, PhoX or DMTMM (Lys-Lys and Lys-Asp/Glu cross-links); sample preparation in ref. 35.

The target in assay [5] is T4, 2-oxoglutarate dehydrogenase complex subunit E3 (DLD), bovine (bovine (endogenous in bovine heart mitochondria)). Briefly: native gel or EMSA; complexome profiling: bovine heart mitochondria, untreated or cross-linked (PhoX or DMTMM), separated by BN-PAGE (3 to 10%), gel slices read by mass spectrometry. A general note: Mobility shift assays separate free from complexed probe on a gel.

Here are results for six molecules from publication PMC9974300.

These are yes or no findings as the source states them, for the method shown. For part of these data: In cells and extracts the contact can be indirect. Some entries that bind do so weakly or less than the wild type.

B1: MRPS36, mouse (protein, UniProt Q9CQX8 1-102)
chain: MGSKMASATRVVQVVKPHAPLIKFPNRRDKPKLSASEALGSAALPSHSSAISQHSKGSTSPDLLMHQGPPDTAEIIKSLPQKYRRKPMSQEEMEFIQRGGPE
With B1, the binding entry in assay [1] and in assay [2] was “binds” throughout.

B2: MRPS36, mouse, Q9CQX8 1-102 (protein)
chain: MGSKMASATRVVQVVKPHAPLIKFPNRRDKPKLSASEALGSAALPSHSSAISQHSKGSTSPDLLMHQGPPDTAEIIKSLPQKYRRKPMSQEEMEFIQRGGPE
B2: the binding result in assay [3] is given as “no binding”.

B3: 2-oxoglutarate dehydrogenase complex subunit E3 (DLD), mouse (enzyme, UniProt O08749 36-509)
chain: ADQPIEADVTVIGSGPGGYVAAIKSAQLGFKTVCIEKNETLGGTCLNVGCIPSKALLNNSHYYHMAHGKDFASRGIEIPEVRLNLEKMMEQKHSAVKALTGGIAHLFKQNKVVHVNGFGKITGKNQVTATKADGSTQVIDTKNILVATGSEVTPFPGITIDEDTIVSSTGALSLKKVPEKLVVIGAGVIGVELGSVWQRLGADVTAVEFLGHVGGIGIDMEISKNFQRILQRQGFKFKLNTKVTGATKKSDGKIDVSVEAASGGKAEVITCDVLLVCIGRRPFTQNLGLEELGIELDPKGRIPVNNRFQTKIPNIYAIGDVVAGPMLAHKAEDEGIICVEGMAGGAVHIDYNCVPSVIYTHPEVAWVGKSEEQLKEEGIEFKIGKFPFAANSRAKTNADTDGMVKILGHKSTDRVLGAHILGPGAGEMVNEAALALEYGASCEDIARVCHAHPTLSEAFREANLAAAFGKPINF
In the case of B3, the binding result in assay [1] is on record as “binds”.

B4: 2-oxoglutarate dehydrogenase complex subunit E1o (OGDH), mouse (enzyme, UniProt Q60597 41-1023)
chain: SAPVAAEPFLSGTSSNYVEEMYCAWLENPKSVHKSWDIFFRNTNAGAPPGTAYQSPLSLSRSSLATMAHAQSLVEAQPNVDKLVEDHLAVQSLIRAYQIRGHHVAQLDPLGILDADLDSSVPADIISSTDKLGFYGLHESDLDKVFHLPTTTFIGGQEPALPLREIIRRLEMAYCQHIGVEFMFINDLEQCQWIRQKFETPGIMQFTNEEKRTLLARLVRSTRFEEFLQRKWSSEKRFGLEGCEVLIPALKTIIDMSSANGVDYVIMGMPHRGRLNVLANVIRKELEQIFCQFDSKLEAADEGSGDMKYHLGMYHRRINRVTDRNITLSLVANPSHLEAADPVVMGKTKAEQFYCGDTEGKKVMSILLHGDAAFAGQGIVYETFHLSDLPSYTTHGTVHVVVNNQIGFTTDPRMARSSPYPTDVARVVNAPIFHVNSDDPEAVMYVCKVAAEWRNTFHKDVVVDLVCYRRNGHNEMDEPMFTQPLMYKQIRKQKPVLQKYAELLVSQGVVNQPEYEEEISKYDKICEEAFTRSKDEKILHIKHWLDSPWPGFFTLDGQPRSMTCPSTGLEEDVLFHIGKVASSVPVENFTIHGGLSRILKTRRELVTNRTVDWALAEYMAFGSLLKEGIHVRLSGQDVERGTFSHRHHVLHDQNVDKRTCIPMNHLWPNQAPYTVCNSSLSEYGVLGFELGFAMASPNALVLWEAQFGDFNNMAQCIIDQFICPGQAKWVRQNGIVLLLPHGMEGMGPEHSSARPERFLQMCNDDPDVLPDLQEENFDINQLYDCNWIVVNCSTPGNFFHVLRRQILLPFRKPLIVFTPKSLLRHPEARTSFDEMLPGTHFQRVIPENGPAAQDPHKVKRLLFCTGKVYYDLTRERKARNMEEEVAITRIEQLSPFPFDLLLKEAQKYPNAELAWCQEEHKNQGYYDYVKPRLRTTIDRAKPVWYAGRDPAAAPATGNKKTHLTELQRFLDTAFDLDAFKKFS
Turning to B4, the binding result is listed as “binds” in assay [1] and “binds weakly” in assay [2].

B5: MRPS36, bovine (protein, UniProt P82908 1-103)
chain: MMGSKMASASRVVQVVKPHTPLIRFPDRRDNPKPNVSEVLRSAGLPSHTSSISQHSKGSKSPDWLMHQGPPDTAEMIKTLPQKYRRKLVSQEEIEFIQRGGPE
In the case of B5, the binding entry in assay [4] and in assay [5] was “binds” throughout.

B6: 2-oxoglutarate dehydrogenase complex subunit E1o (OGDH), bovine (enzyme, UniProt Q148N0 41-1023)
chain: TAPVAAEPFLSGTSSNYVEEMYYAWLENPKSVHKSWDIFFRNTNAGAPPGTAYQSPLPLSPGSLSAVARAGPLVEAQPNVDKLVEDHLAVQSLIRAYQIRGHHVAQLDPLGILDADLDSSVPADIISSTDKLGFYGLDESDLDKVFHLPTTTFIGGQESALPLREIIRRLEMAYCQHIGVEFMFINDLEQCQWIRQKFETPGVMQFTNEEKRTLLARLVRSTRFEEFLQRKWSSEKRFGLEGCEVLIPALKTIIDKSSENGVDYVIMGMPHRGRLNVLANVIRKELEQIFCQFDSKLEAADEGSGDVKYHLGMYHRRINRVTDRNITLSLVANPSHLEAADPVVMGKTKAEQFYCGDTEGKKVMSILLHGDAAFAGQGIVYETFHLSDLPSYTTHGTVHVVVNNQIGFTTDPRMARSSPYPTDVARVVNAPIFHVNSDDPEAVMYVCKVAAEWRSTFHKDVVVDLVCYRRNGHNEMDEPMFTQPLMYKQIRKQKPVLQKYAELLVSQGVVNQPEYEEEISKYDKICEEAFARSKDEKILHIKHWLDSPWPGFFTLDGQPRSMTCPSTGLTEDILTHIGNVASSVPVEDFTIHGGLSRILKTRGELVKNRTVDWALAEYMAFGSLLKEGIHIRLSGQDVERGTFSHRHHVLHDQNVDKRTCIPMNHLWPNQAPYTVCNSSLSEYGVLGFELGFAMASPNALVLWEAQFGDFHNTAQCIIDQFICPGQAKWVRQNGIVLLLPHGMEGMGPEHSSARPERFLQMCNDDPDVLPDLKEANFDINQLYDCNWVVVNCSTPGNFFHVLRRQILLPFRKPLIIFTPKSLLRHPEARSNFDEMLPGTHFQRVIPEDGPAAQNPGNVKRLLFCTGKVYYDLTRERKARDMVEQVAITRIEQLSPFPFDLLLQEVQKYPSAELAWCQEEHKNQGYYDYVKPRLRTTISRAKPVWYAGRDPAAAPATGNKKTHLTELQRLLDTAFDLDAFKNFS
Regarding B6, in assay [4], the binding result is on record as “no binding”.
